{"source": "PubChem BioAssay AID588549", "about": "(Broad Institute, 2011)", "note": "Where “and” joins values, the source holds several entries; their conditions need not be identical. Equal entries are not always repeated. Screen size: about 360,000 compounds; about 780 (0.22%) were called active. Inconclusive results, whose numbers are uncertain, are shown with a selection of clear calls. No stated cut-off is given here; in the data, active means inhibition above about 8.5% (passing the limit was not always enough); inconclusive means no clear call, values can overlap the other calls. The source holds several records for some structures; these can differ, active in one and inactive in another.", "data": [{"system": "Mycobacterium tuberculosis FadD28 fatty-acid-AMP ligase", "test": "inhibitors of FadD28 bisubstrate probe binding, primary screen, biochemical, fluorescence polarization, single point (AID 588549)", "conditions": "at 12.5 µM, stronger effect = higher value", "values": [{"compound": "Cc1cccc(C(=O)Oc2csc(=S)n2C(=O)c2cccc(C)c2)c1", "inhibition": "inconclusive: 7.1%"}, {"compound": "Cc1ccc([N+](=O)[O-])cc1-c1[nH]c(-c2ccc(O)c(O)c2)nc1-c1ccccc1", "inhibition": "active: 12.9%"}, {"compound": "Cc1cc(NS(=O)(=O)c2ccc(NC(=O)Cc3ccccc3)cc2)nc(C)n1", "inhibition": "inconclusive: 4.11%"}, {"compound": "O=C(O)c1cccc2c1NC(c1cccc([N+](=O)[O-])c1)C1CC(Sc3ccccc3[N+](=O)[O-])C(Cl)C21", "note": "(stereo not drawn)", "inhibition": "inconclusive: 12.5%"}, {"compound": "Cc1ccc2nc(SCC(=O)Nc3ccc(C(N)=O)cc3)[nH]c2c1", "inhibition": "inconclusive: 6.3%"}, {"compound": "COc1ccc2c(Cl)c(C(=O)NN)sc2c1", "inhibition": "inactive: -3.42%"}, {"compound": "CCOc1ccc(CNC(=O)CCc2cn(C)c3ccccc23)cc1OC", "inhibition": "inconclusive: 8.24%"}, {"compound": "COc1ccc(-n2nnnc2SCC(=O)Nc2ccccc2N2CCOCC2)cc1OC", "inhibition": "inconclusive: 9.25%"}, {"compound": "O=C(OCC(=O)N1CCCC1)c1cccs1", "inhibition": "inconclusive: 7.78%"}, {"compound": "CCCOc1ccc(N2C(=O)CC(N(Cc3ccco3)C(C)=O)C2=O)cc1", "note": "(stereo not drawn)", "inhibition": "inactive: -2.34%"}, {"compound": "CCCCC(=O)Nc1cc([N+](=O)[O-])ccc1Cl", "inhibition": "inconclusive: 2.96%"}, {"compound": "Cc1ccc(CNC(=O)c2ccc3c(=O)[nH]c4c(C(=O)NCC5CCCO5)sc(=S)n4c3c2)cc1", "note": "(stereo not drawn)", "inhibition": "active: 60.1%"}, {"compound": "C=CCOc1ccc(C2OC34CCCCC3C(C#N)(C#N)C2(C#N)C(=N)O4)cc1", "note": "(stereo not drawn)", "inhibition": "inconclusive: 8.65%"}, {"compound": "O=C(Cc1ccccc1[N+](=O)[O-])OCC(=O)c1c[nH]c2ccccc12", "inhibition": "inconclusive: 26.1%"}, {"compound": "O=C(CN1CCN(S(=O)(=O)c2ccc(Cl)cc2)CC1)Nc1ccc2c(c1)OCCO2", "inhibition": "inactive: -4.83%"}, {"compound": "Cc1cnc(C(=O)NC(C)CCc2ccccc2)cn1", "note": "(stereo not drawn)", "inhibition": "inactive: -3.68%"}, {"compound": "COc1ccc(OC)c(NC(=O)NNC(=O)c2cc3occc3[nH]2)c1", "inhibition": "inconclusive: 6.33%"}, {"compound": "CCOC(=O)Cc1cc(=O)n(-c2nc3ccccc3s2)[nH]1", "inhibition": "inconclusive: 8.3%"}, {"compound": "Cc1ccc([N+](=O)[O-])cc1-c1ccc(/C=C(\\C#N)c2[nH]nc(N)c2C#N)o1", "inhibition": "active: 9.36%"}, {"compound": "COc1cccc2c1C(=O)c1c(O)c3c(c(O)c1C2=O)C[C@@](O)(C(=O)CO)C[C@@H]3O[C@H]1C[C@H](N)[C@H](O)[C@H](C)O1", "inhibition": "active: 63.4%"}, {"compound": "Cc1cc(OC(C)C(=O)NCCN2CCOCC2)c2c(C)c(C)c(=O)oc2c1", "note": "(stereo not drawn)", "inhibition": "inactive: -0.316%"}, {"compound": "Cc1cc(C)c(S(=O)(=O)/N=C2\\C=C(Nc3ccc(C(=O)O)cc3)C(=O)c3ccccc32)c(C)c1", "inhibition": "inconclusive: 10.4%"}, {"compound": "O=C(O)c1ccccc1NS(=O)(=O)c1ccc(N/N=C/c2ccc(O)c(O)c2)c([N+](=O)[O-])c1", "inhibition": "active: 53.2%"}, {"compound": "CCOC(=O)c1[nH]nc(-c2cc(CC)c(O)cc2O)c1-c1cscn1", "inhibition": "inactive: -2.62%"}, {"compound": "O=C(NNC(=O)c1ccc([N+](=O)[O-])cc1)c1ccc(NS(=O)(=O)c2cccs2)cc1", "inhibition": "active: 19%"}, {"compound": "CC[C@H](C)/C=C/C1=CC2=C(Cl)C(=O)[C@@]3(C)OC(=O)C(C(=O)[C@H](C)[C@@H](C)O)=C3C2=CO1", "inhibition": "inconclusive: 8.35%"}, {"compound": "O=C(NCc1cccnc1)c1cc(-c2ccccc2)on1", "inhibition": "inconclusive: 2.75%"}, {"compound": "CCOc1ccc(-c2csc(/C(C#N)=C\\c3ccc(O)c([N+](=O)[O-])c3)n2)cc1", "inhibition": "inconclusive: 10.5%"}, {"compound": "O=C(Nc1ccc2nc(-c3ccco3)c(-c3ccco3)nc2c1)NC1CC1", "inhibition": "inconclusive: 8.44%"}, {"compound": "COc1ccc(N2CCN(C(CNC(=O)COc3ccccc3)c3ccco3)CC2)cc1", "note": "(stereo not drawn)", "inhibition": "inconclusive: 3.8%"}, {"compound": "O=C1C=CC(=O)N1c1ccc(Nc2ccccc2)cc1", "inhibition": "inactive: -0.857%"}, {"compound": "Fc1cccc2sc(Nc3nc4ccccc4s3)nc12", "inhibition": "inactive: -1.53%"}, {"compound": "COc1ccc(/C=C2\\CCCc3c2nc2ccc(C)cc2c3C(=O)O)cc1O", "inhibition": "inconclusive: 8.85%"}, {"compound": "N#C/C(=N\\Nc1cccc([N+](=O)[O-])c1)C(=O)c1ccc(Br)cc1", "inhibition": "inconclusive: 9.42%"}, {"compound": "O=C(O)CCN1C(=O)/C(=C/c2ccc(-c3nc4ccccc4s3)o2)SC1=S", "inhibition": "inconclusive: 7.93%"}, {"compound": "COc1cccc(C(=O)Oc2cc(C)[nH]c(=O)c2[N+](=O)[O-])c1OC", "inhibition": "inconclusive: 4.6%"}, {"compound": "Cc1cc(N2CC(C)OC(C)C2)nc2ccccc12", "note": "(stereo not drawn)", "inhibition": "inactive: -2.4%"}, {"compound": "CCC(=O)c1cccc(-c2ccccc2)c1CC", "inhibition": "inconclusive: 3.49%"}, {"compound": "COc1ccc(CCNC(=O)c2ccc(Cl)c(S(=O)(=O)N(C)c3ccccc3)c2)cc1", "inhibition": "inconclusive: 7.04%"}, {"compound": "Cn1c(SCc2cccc(F)c2)nnc1-c1cnccn1", "inhibition": "inactive: 1.3%"}, {"compound": "COc1cnc(-c2cccc(C(F)(F)F)c2)c(NC(=O)c2cc3ccccc3s2)n1", "inhibition": "inconclusive: 6.19%"}, {"compound": "CCOc1ccc(N(CC(=O)Nc2ccccc2OC)S(C)(=O)=O)cc1", "inhibition": "inactive: -1.35%"}, {"compound": "Cc1ccc(S(=O)(=O)N2CCC(C(=O)NCCCN3CCOCC3)CC2)cc1C", "inhibition": "inconclusive: 3.12%"}, {"compound": "O=c1oc2cc(OCc3nn[nH]n3)ccc2c2c1CCCC2", "inhibition": "inactive: -3.52%"}, {"compound": "COc1ccccc1CN1CCCC(C(=O)N2CCCCC2)C1", "note": "(stereo not drawn)", "inhibition": "inconclusive: 5.19%"}, {"compound": "COc1cc(/C=N/NC(=O)CN(Cc2ccccc2)S(=O)(=O)c2ccc3c(c2)OCCO3)ccc1O", "inhibition": "active: 21.6%"}, {"compound": "COc1cc([N+](=O)[O-])ccc1NC(=S)NC(=O)CC(C)(C)C", "inhibition": "inconclusive: 3.24%"}, {"compound": "NC(Cc1ccc(C(F)(F)F)cc1)c1csc(NC(=O)Nc2ccccc2)n1", "note": "(stereo not drawn)", "inhibition": "inconclusive: 5.95%"}, {"compound": "O=C(O)CC1S/C(=N/N=C/c2ccc(-c3ccc(Cl)c([N+](=O)[O-])c3)o2)NC1=O", "note": "(stereo not drawn)", "inhibition": "inconclusive: 7.14%"}, {"compound": "COc1ccc(S(=O)(=O)N2CCCCCC2)cc1C(=O)NCc1cccs1", "inhibition": "inconclusive: 8.34%"}, {"compound": "C=Cc1c(C)c2cc3[nH]c(cc4nc(cc5nc(cc1[nH]2)C(C)=C5CCC(=O)O)C(CCC(=O)O)=C4C)c(C)c3C=C", "inhibition": "active: 43.3% and inconclusive: 7.4%"}, {"compound": "CCCCCCCCSc1nnc(CSc2nc3nc(C)cc(C)n3n2)o1", "inhibition": "inconclusive: 8.24%"}, {"compound": "O=C(Nc1nccs1)c1ccc(-c2cccc([N+](=O)[O-])c2)o1", "inhibition": "inactive: 0.932%"}, {"compound": "O=C(NC(NC(=S)Nc1c(Cl)cccc1Cl)C(Cl)(Cl)Cl)OCc1ccccc1", "note": "(stereo not drawn)", "inhibition": "inconclusive: 7.36%"}, {"compound": "CCC(C)(C)C1CCc2c(sc(NC(=O)c3ccccc3C(=O)O)c2C#N)C1", "note": "(stereo not drawn)", "inhibition": "inconclusive: 10.4%"}, {"compound": "O=c1c(-c2c(O)cc(O)c3c(=O)cc(-c4ccc(O)cc4)oc23)c(-c2ccc(O)cc2)oc2cc(O)cc(O)c12", "inhibition": "inactive: -59%"}, {"compound": "CCN1CCN(C(=O)c2ccc(COc3cccc(Cl)c3)o2)CC1", "inhibition": "inactive: -1.08%"}, {"compound": "O=C(NCCN1CCOCC1)c1ccc([N+](=O)[O-])cc1[N+](=O)[O-]", "inhibition": "inactive: -3.44%"}, {"compound": "Cc1cc(C)c[n+](C2=C([O-])c3ccccc3C(=O)/C2=N\\S(=O)(=O)c2cccs2)c1", "inhibition": "inactive: -2.02%"}, {"compound": "CCn1c(C)c(C)c2cc(C(=O)N3CCCC3)ccc21", "inhibition": "inconclusive: 5.07%"}, {"compound": "CCOC(=O)c1c(NS(=O)(=O)c2ccc(Br)cc2)sc2c1CCC2", "inhibition": "active: 11.6%"}, {"compound": "C=CCn1c(C)cc(C2=NNC(=NC(C)(C)C)SC2)c1C", "inhibition": "inactive: -2.99%"}, {"compound": "O=C(O)COc1ccc(Br)cc1C(c1c(C(=O)O)[nH]c2ccccc12)c1c(C(=O)O)[nH]c2ccccc12", "inhibition": "active: 28%"}, {"compound": "COc1ccc(CCNC(=O)c2ccc(CNS(=O)(=O)c3ccc(C(C)(C)C)cc3)cc2)cc1OC", "inhibition": "inconclusive: 24.4%"}, {"compound": "N=C1c2ccccc2CN1NC(=O)CC12CC3CC(CC(C3)C1)C2", "inhibition": "active: 21.9%"}, {"compound": "O=C(O)c1ccccc1NC(=O)c1ccccc1Nc1ccccc1", "inhibition": "inconclusive: 7.98%"}, {"compound": "Cc1cc(C)n2nc3nc(N4CCCC4)nc(-c4ccccc4)c3c2n1", "inhibition": "inconclusive: 6%"}, {"compound": "COc1cc(/C=C(/C#N)c2ccccc2)ccc1Oc1ccc([N+](=O)[O-])cn1", "inhibition": "inactive: -1.3%"}, {"compound": "Cc1[nH]c2ccccc2c1C(=O)CN1CCSCC1", "inhibition": "inconclusive: 7.38%"}, {"compound": "O=C(O)c1[nH]c2ccccc2c1C(c1c(F)cccc1Cl)c1c(C(=O)O)[nH]c2ccccc12", "inhibition": "active: 24.1%"}, {"compound": "CCCCCC1C(=O)N2C=C(c3ccccc3)c3ccccc3N2C1=O", "note": "(stereo not drawn)", "inhibition": "inconclusive: 7.42%"}, {"compound": "O=C1C=C(Nc2ccccc2C(=O)O)c2ccccc2C1=O", "inhibition": "inconclusive: 6.9%"}, {"compound": "CCN1CCN(Cc2ccc(NC(=O)c3ccc(C)c(NC(=O)C(=O)c4c[nH]c5ccccc45)c3)cc2C(F)(F)F)CC1", "inhibition": "active: 55.2%"}, {"compound": "CN(C)c1cccc(NC(=O)c2ccco2)c1", "inhibition": "inconclusive: 5.43%"}, {"compound": "O=C(O)C1Sc2[nH]c(=O)sc2C2c3ccc(O)cc3OC(=O)C12", "note": "(stereo not drawn)", "inhibition": "inconclusive: 7.11%"}, {"compound": "CC(=O)c1cnc(Nc2cccc(Cl)c2Cl)s1", "inhibition": "inactive: -4.14%"}, {"compound": "COc1ccc(S(=O)(=O)/N=C2/NC(=O)/C(=C/c3ccco3)S2)cc1", "inhibition": "active: 20.1%"}, {"compound": "O=C(O)c1ccccc1NC(c1ccccc1)c1ccc(Cl)cc1", "note": "(stereo not drawn)", "inhibition": "active: 11.7%"}, {"compound": "COc1ccc(C(=O)OCC(=O)c2ccccc2)cc1S(=O)(=O)N1CCOCC1", "inhibition": "inconclusive: 7.47%"}, {"compound": "O=C(O)c1[nH]c2ccccc2c1C(c1cc(Cl)cc([N+](=O)[O-])c1O)c1c(C(=O)O)[nH]c2ccccc12", "inhibition": "active: 56.2%"}, {"compound": "O=C(NNC(=O)c1ccccc1OCc1ccc(F)cc1)c1ccccc1O", "inhibition": "inactive: -4.51%"}, {"compound": "O=[N+]([O-])c1ccc(O)c(/C=N/NC(=S)Nc2ccc(Cl)cc2Cl)c1", "inhibition": "inconclusive: 6.72%"}, {"compound": "COC(=O)CCC(=O)N1CCCC(CO)(Cc2ccccc2F)C1", "note": "(stereo not drawn)", "inhibition": "inconclusive: 4.04%"}]}]}
